Test results reported in the supplement of paper PMC8728848.
Some of the results follow.

Experiments:
Assay in all cases: glycan array binding signal (z-score within array); higher = stronger binding
Details in all cases: glycan notation: IUPAC condensed, linker removed
[1] = molecular target: Neu5Ac(a2-3)Gal(b1-4)GlcNAc(b1-3)Gal(b1-4)GlcNAc(b1-3)Gal(b1-4)GlcNAc
Procedure, shortened: (§1)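 Arrays were curated from the Consortium for Functional Glycomics database, 3228 in total, and kept only where the protein sequence was available. Binding is expressed as a within-array Z-score. This score was averaged across arrays of the same protein sequence at different concentrations or buffers and across linkers, and negative values can be read as non-binding.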

[2] = molecular target: Neu5Ac(a2-3)Gal(b1-4)GlcNAc(b1-3)Gal(b1-4)GlcNAc(b1-3)Gal(b1-4)GlcNAc(b1-2)Man(a1-3)[Neu5Ac(a2-3)Gal(b1-4)GlcNAc(b1-3)Gal(b1-4)GlcNAc(b1-3)Gal(b1-4)GlcNAc(b1-2)Man(a1-6)]GalNAc
Procedure, shortened: as §1

[3] = molecular target: Neu5Ac(a2-3)Gal(b1-4)GlcNAc(b1-3)Gal(b1-4)GlcNAc(b1-3)GalNAc
Procedure, shortened: as §1

[4] = molecular target: Neu5Ac(a2-3)Gal(b1-4)GlcNAc(b1-3)Gal(b1-4)GlcNAc(b1-3)[Neu5Ac(a2-3)Gal(b1-4)GlcNAc(b1-3)Gal(b1-4)GlcNAc(b1-6)]GalNAc
Procedure, shortened: as §1

[5] = molecular target: Neu5Ac(a2-3)Gal(b1-4)GlcNAc(b1-3)Gal(b1-4)GlcNAc(b1-6)[Gal(b1-3)]GalNAc
Procedure, shortened: as §1

[6] = molecular target: Neu5Ac(a2-3)Gal(b1-4)GlcNAc(b1-3)Gal(b1-4)[Fuc(a1-3)]GlcNAc
Procedure, shortened: as §1

[7] = molecular target: Neu5Ac(a2-3)Gal(b1-4)GlcNAc(b1-3)GalNAc
Procedure, shortened: as §1

[8] = molecular target: Neu5Ac(a2-3)Gal(b1-4)GlcNAc(b1-3)[Neu5Ac(a2-3)Gal(b1-4)GlcNAc(b1-6)]GalNAc
Procedure, shortened: as §1

[9] = molecular target: Neu5Ac(a2-3)Gal(b1-4)GlcNAc(b1-6)GalNAc
Procedure, shortened: as §1

[10] = molecular target: Neu5Ac(a2-3)Gal(b1-4)GlcNAc(b1-6)[Gal(b1-3)]GalNAc
Procedure, shortened: as §1

[11] = molecular target: Neu5Ac(a2-3)Gal(b1-4)GlcNAc(b1-6)[Neu5Ac(a2-3)Gal(b1-3)]GalNAc
Procedure, shortened: as §1

[12] = molecular target: Neu5Ac(a2-3)Gal(b1-4)GlcNAc6S
Procedure, shortened: as §1

[13] = molecular target: Neu5Ac(a2-3)Gal(b1-4)[Fuc(a1-3)]GlcNAc
Procedure, shortened: as §1

[14] = molecular target: Neu5Ac(a2-3)Gal(b1-4)[Fuc(a1-3)]GlcNAc(b1-2)Man
Procedure, shortened: as §1

[15] = molecular target: Neu5Ac(a2-3)Gal(b1-4)[Fuc(a1-3)]GlcNAc(b1-3)Gal
Procedure, shortened: as §1

[16] = molecular target: Neu5Ac(a2-3)Gal(b1-4)[Fuc(a1-3)]GlcNAc(b1-3)Gal(b1-4)GlcNAc
Procedure, shortened: as §1

[17] = molecular target: Neu5Ac(a2-3)Gal(b1-4)[Fuc(a1-3)]GlcNAc(b1-3)Gal(b1-4)[Fuc(a1-3)]GlcNAc(b1-3)Gal(b1-4)[Fuc(a1-3)]GlcNAc
Procedure, shortened: as §1

[18] = molecular target: Neu5Ac(a2-3)Gal(b1-4)[Fuc(a1-3)]GlcNAc(b1-3)GalNAc
Procedure, shortened: as §1

[19] = molecular target: Neu5Ac(a2-3)Gal(b1-4)[Fuc(a1-3)]GlcNAc(b1-6)[Gal(b1-3)]GalNAc
Procedure, shortened: as §1

[20] = molecular target: Neu5Ac(a2-3)Gal(b1-4)[Fuc(a1-3)]GlcNAc(b1-6)[Neu5Ac(a2-3)Gal(b1-3)]GalNAc
Procedure, shortened: as §1

[21] = molecular target: Neu5Ac(a2-3)Gal(b1-4)[Fuc(a1-3)]GlcNAc6S
Procedure, shortened: as §1

[22] = molecular target: Neu5Ac(a2-3)Gal6S(b1-4)GlcNAc
Procedure, shortened: as §1

[23] = molecular target: Neu5Ac(a2-3)Gal6S(b1-4)[Fuc(a1-3)]GlcNAc
Procedure, shortened: as §1

Neu5Ac(a2-3)GalNAc = molecular target: Neu5Ac(a2-3)GalNAc
Procedure, shortened: as §1

[24] = molecular target: Neu5Ac(a2-3)GalNAc(b1-4)GlcNAc
Procedure, shortened: as §1

[25] = molecular target: Neu5Ac(a2-3)[GalNAc(b1-4)]Gal(b1-4)Glc
Procedure, shortened: as §1

[26] = molecular target: Neu5Ac(a2-3)[GalNAc(b1-4)]Gal(b1-4)GlcNAc
Procedure, shortened: as §1

[27] = molecular target: Neu5Ac(a2-3)[GalNAc(b1-4)]Gal(b1-4)GlcNAc(b1-3)GalNAc
Procedure, shortened: as §1

[28] = molecular target: Neu5Ac(a2-3)[Neu5Ac(a2-6)]GalNAc
Procedure, shortened: as §1

Neu5Ac(a2-6)Gal = molecular target: Neu5Ac(a2-6)Gal
Procedure, shortened: as §1

[29] = molecular target: Neu5Ac(a2-6)Gal(b1-3)GlcNAc(b1-3)[Gal(b1-4)GlcNAc(b1-6)]Gal(b1-4)Glc
Procedure, shortened: as §1

Neu5Ac(a2-6)Gal(b1-4)Glc = molecular target: Neu5Ac(a2-6)Gal(b1-4)Glc
Procedure, shortened: as §1

[30] = molecular target: Neu5Ac(a2-6)Gal(b1-4)GlcNAc
Procedure, shortened: as §1

[31] = molecular target: Neu5Ac(a2-6)Gal(b1-4)GlcNAc(b1-2)Man
Procedure, shortened: as §1

[32] = molecular target: Neu5Ac(a2-6)Gal(b1-4)GlcNAc(b1-2)Man(a1-3)Man(b1-4)GlcNAc(b1-4)GlcNAc
Procedure, shortened: as §1

[33] = molecular target: Neu5Ac(a2-6)Gal(b1-4)GlcNAc(b1-2)Man(a1-3)[Gal(b1-4)GlcNAc(b1-2)Man(a1-6)]Man(b1-4)GlcNAc(b1-4)GlcNAc
Procedure, shortened: as §1

[34] = molecular target: Neu5Ac(a2-6)Gal(b1-4)GlcNAc(b1-2)Man(a1-3)[GlcNAc(b1-2)Man(a1-6)]Man(b1-4)GlcNAc(b1-4)GlcNAc
Procedure, shortened: as §1

[35] = molecular target: Neu5Ac(a2-6)Gal(b1-4)GlcNAc(b1-2)Man(a1-3)[GlcNAc(b1-4)][Neu5Ac(a2-6)Gal(b1-4)GlcNAc(b1-2)Man(a1-6)]Man(b1-4)GlcNAc(b1-4)GlcNAc
Procedure, shortened: as §1

B1: Cohesin-marm-DC-ASGPR (protein)
chain: LDITSHHHHHHDDLDAVRIKVDTVNAKPGDTVRIPVRFSGIPSKGIANCDFVYSYDPNVLEIIEIEPGDIIVDPNPDKSFDTAVYPDRKIIVFLFAEDSGTGAYAITKDGVFATIVAKVKEGAPNGLSVIKFVEVGGFANNDLVEQKTQFFDGGVNVGDTTEPATPTTPVTTPTTTDDLDAASSKFQRDLVTLRTDFSNFTSNTLAEIQALTSQGSSLQETIASLKAEVEGHKQELQAGASELQEHNKQKAHLGRCPHTCVCPSSFVCVPVHSEILLRVQQLVQDLNKLSCQVAILKNNATTERTCCPINWVEHQGSCYWFSRSGKTWPEAERYCQLENTHLVVINSREEQNFVQAHLGSAYTWMGLSDPEGVWKWVDGTDYSSGFQNWKPGQPDDWQGHGLGGGEDCAHFHPDGRWNDDVCQRSYHWVCEAGLTQASQDSHAS
For B1, the “glycan array binding signal (z-score)” value [1] was -0.288, the “glycan array binding signal (z-score)” value [2] was -0.281 and the “glycan array binding signal (z-score)” value [3] was -0.211. For the same binder, the “glycan array binding signal (z-score)” value [4] was -0.303, the “glycan array binding signal (z-score)” value [5] was -0.307 and the “glycan array binding signal (z-score)” value [6] was -0.31. For the same binder, the “glycan array binding signal (z-score)” value [7] was -0.307, the “glycan array binding signal (z-score)” value [8] was -0.311 and the “glycan array binding signal (z-score)” value [9] was 4.81. For the same binder, the “glycan array binding signal (z-score)” value [10] was -0.297, the “glycan array binding signal (z-score)” value [11] was -0.303 and the “glycan array binding signal (z-score)” value [12] was -0.294. The “glycan array binding signal (z-score)” value [13] was -0.304, the “glycan array binding signal (z-score)” value [14] was -0.233 and the “glycan array binding signal (z-score)” value [15] was -0.311. The “glycan array binding signal (z-score)” value [16] was -0.244, the “glycan array binding signal (z-score)” value [17] was -0.29 and the “glycan array binding signal (z-score)” value [18] was -0.202. For the same binder, the “glycan array binding signal (z-score)” value [19] was -0.307, the “glycan array binding signal (z-score)” value [20] was -0.284 and the “glycan array binding signal (z-score)” value [21] was -0.297. The “glycan array binding signal (z-score)” value [22] was -0.307, the “glycan array binding signal (z-score)” value [23] was -0.303 and the “glycan array binding signal (z-score)” value (Neu5Ac(a2-3)GalNAc) was -0.309. The “glycan array binding signal (z-score)” value [24] was -0.308, the “glycan array binding signal (z-score)” value [25] was 2.04 and the “glycan array binding signal (z-score)” value [26] was -0.039. The “glycan array binding signal (z-score)” value [27] was -0.229, the “glycan array binding signal (z-score)” value [28] was -0.249 and the “glycan array binding signal (z-score)” value (Neu5Ac(a2-6)Gal) was -0.306. The “glycan array binding signal (z-score)” value [29] was -0.293, the “glycan array binding signal (z-score)” value (Neu5Ac(a2-6)Gal(b1-4)Glc) was -0.303 and the “glycan array binding signal (z-score)” value [30] was -0.287. For the same binder, the “glycan array binding signal (z-score)” value [31] was -0.288, the “glycan array binding signal (z-score)” value [32] was -0.31 and the “glycan array binding signal (z-score)” value [33] was -0.175. The “glycan array binding signal (z-score)” value [34] was -0.312 and the “glycan array binding signal (z-score)” value [35] was -0.308.
